Source: the supplement of paper PMC8728848
The other results are listed elsewhere or left out.

Experiments:
Assay in all cases: glycan array binding signal (z-score within array); higher = stronger binding
Details in all cases: glycan notation: IUPAC condensed, linker removed
[1] = biological target: Gal(a1-3)Gal(b1-4)GlcNAc(b1-2)Man
Outline: (§1)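 Negative Z-scores can be read as non-binding. The Z-score is calculated within each array and then averaged across arrays of one protein sequence at different concentrations or buffers and across linkers. Arrays, 3228 in all, were curated from the Consortium for Functional Glycomics database and kept only where the protein sequence was available.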

[2] = biological target: Gal(a1-3)Gal(b1-4)GlcNAc(b1-2)Man(a1-3)[Gal(a1-3)Gal(b1-4)GlcNAc(b1-2)Man(a1-6)]Man(b1-4)GlcNAc(b1-4)GlcNAc
Outline: as §1

[3] = biological target: Gal(a1-3)Gal(b1-4)GlcNAc(b1-3)GalNAc
Outline: as §1

[4] = biological target: Gal(a1-3)Gal(b1-4)GlcNAc(b1-6)GalNAc
Outline: as §1

[5] = biological target: Gal(a1-3)Gal(b1-4)[Fuc(a1-3)]GlcNAc
Outline: as §1

[6] = biological target: Gal(a1-3)Gal(b1-4)[Fuc(a1-3)]GlcNAc(b1-2)Man(a1-3)[Gal(a1-3)Gal(b1-4)[Fuc(a1-3)]GlcNAc(b1-2)Man(a1-6)]Man(b1-4)GlcNAc(b1-4)GlcNAc
Outline: as §1

Gal(a1-3)GalNAc = biological target: Gal(a1-3)GalNAc
Outline: as §1

[7] = biological target: Gal(a1-3)[Gal(a1-4)]Gal(b1-4)GlcNAc
Outline: as §1

[8] = biological target: Gal(a1-4)Gal(b1-3)GlcNAc(b1-2)Man(a1-3)[Gal(a1-4)Gal(b1-3)GlcNAc(b1-2)Man(a1-6)]Man(b1-4)GlcNAc(b1-4)GlcNAc
Outline: as §1

Gal(a1-4)Gal(b1-4)Glc = biological target: Gal(a1-4)Gal(b1-4)Glc
Outline: as §1

Gal(a1-4)Gal(b1-4)GlcNAc = biological target: Gal(a1-4)Gal(b1-4)GlcNAc
Outline: as §1

[9] = biological target: Gal(a1-4)Gal(b1-4)GlcNAc(b1-2)Man(a1-3)[Gal(a1-4)Gal(b1-4)GlcNAc(b1-2)Man(a1-6)]Man(b1-4)GlcNAc(b1-4)GlcNAc
Outline: as §1

[10] = biological target: Gal(a1-4)Gal(b1-4)GlcNAc(b1-3)Gal(b1-4)Glc
Outline: as §1

Gal(a1-4)GlcNAc = biological target: Gal(a1-4)GlcNAc
Outline: as §1

Gal(a1-6)Glc = biological target: Gal(a1-6)Glc
Outline: as §1

Gal(b1-2)Gal = biological target: Gal(b1-2)Gal
Outline: as §1

Gal(b1-3)Gal = biological target: Gal(b1-3)Gal
Outline: as §1

Gal(b1-3)Gal(b1-4)GlcNAc = biological target: Gal(b1-3)Gal(b1-4)GlcNAc
Outline: as §1

Gal(b1-3)GalNAc = biological target: Gal(b1-3)GalNAc
Outline: as §1

[11] = biological target: Gal(b1-3)GalNAc(a1-3)[Fuc(a1-2)]Gal(b1-4)Glc
Outline: as §1

[12] = biological target: Gal(b1-3)GalNAc(a1-3)[Fuc(a1-2)]Gal(b1-4)GlcNAc
Outline: as §1

Gal(b1-3)GalNAc(b1-3)Gal = biological target: Gal(b1-3)GalNAc(b1-3)Gal
Outline: as §1

[13] = biological target: Gal(b1-3)GalNAc(b1-3)Gal(a1-4)Gal(b1-4)Glc
Outline: as §1

[14] = biological target: Gal(b1-3)GalNAc(b1-4)Gal(b1-4)Glc
Outline: as §1

[15] = biological target: Gal(b1-3)GalNAc(b1-4)[Neu5Ac(a2-3)]Gal(b1-4)Glc
Outline: as §1

Gal(b1-3)GlcNAc = biological target: Gal(b1-3)GlcNAc
Outline: as §1

[16] = biological target: Gal(b1-3)GlcNAc(a1-3)Gal(b1-4)GlcNAc
Outline: as §1

[17] = biological target: Gal(b1-3)GlcNAc(a1-6)Gal(b1-4)GlcNAc
Outline: as §1

Gal(b1-3)GlcNAc(b1-2)Man = biological target: Gal(b1-3)GlcNAc(b1-2)Man
Outline: as §1

[18] = biological target: Gal(b1-3)GlcNAc(b1-2)Man(a1-3)[Gal(b1-3)GlcNAc(b1-2)Man(a1-6)]Man(b1-4)GlcNAc(b1-4)GlcNAc
Outline: as §1

[19] = biological target: Gal(b1-3)GlcNAc(b1-2)Man(a1-3)[Gal(b1-3)GlcNAc(b1-2)Man(a1-6)]Man(b1-4)GlcNAc(b1-4)[Fuc(a1-6)]GlcNAc
Outline: as §1

[20] = biological target: Gal(b1-3)GlcNAc(b1-2)Man(a1-3)[GlcNAc(b1-4)][Gal(b1-3)GlcNAc(b1-2)Man(a1-6)]Man(b1-4)GlcNAc(b1-4)GlcNAc
Outline: as §1

[21] = biological target: Gal(b1-3)GlcNAc(b1-2)[Gal(b1-3)GlcNAc(b1-6)]Man(a1-6)[Gal(b1-3)GlcNAc(b1-2)Man(a1-3)]Man(b1-4)GlcNAc(b1-4)GlcNAc
Outline: as §1

[22] = biological target: Gal(b1-3)GlcNAc(b1-3)Gal(b1-3)GlcNAc
Outline: as §1

[23] = biological target: Gal(b1-3)GlcNAc(b1-3)Gal(b1-4)Glc
Outline: as §1

[24] = biological target: Gal(b1-3)GlcNAc(b1-3)Gal(b1-4)GlcNAc
Outline: as §1

[25] = biological target: Gal(b1-3)GlcNAc(b1-3)Gal(b1-4)GlcNAc(b1-2)Man(a1-3)[Gal(b1-3)GlcNAc(b1-3)Gal(b1-4)GlcNAc(b1-2)Man(a1-6)]Man(b1-4)GlcNAc(b1-4)GlcNAc
Outline: as §1

[26] = biological target: Gal(b1-3)GlcNAc(b1-3)Gal(b1-4)GlcNAc(b1-2)[Gal(b1-3)GlcNAc(b1-3)Gal(b1-4)GlcNAc(b1-6)]Man(a1-6)[Gal(b1-3)GlcNAc(b1-3)Gal(b1-4)GlcNAc(b1-2)Man(a1-3)]Man(b1-4)GlcNAc(b1-4)[Fuc(a1-6)]GlcNAc
Outline: as §1

[27] = biological target: Gal(b1-3)GlcNAc(b1-3)Gal(b1-4)GlcNAc(b1-3)Gal(b1-4)GlcNAc(b1-2)[Gal(b1-3)GlcNAc(b1-3)Gal(b1-4)GlcNAc(b1-3)Gal(b1-4)GlcNAc(b1-6)]Man(a1-6)[Gal(b1-3)GlcNAc(b1-3)Gal(b1-4)GlcNAc(b1-3)Gal(b1-4)GlcNAc(b1-2)Man(a1-3)]Man(b1-4)GlcNAc(b1-4)[Fuc(a1-6)]GlcNAc
Outline: as §1

[28] = biological target: Gal(b1-3)GlcNAc(b1-3)Gal(b1-4)GlcNAc(b1-6)[Gal(b1-3)GlcNAc(b1-3)]Gal(b1-4)Glc
Outline: as §1

[29] = biological target: Gal(b1-3)GlcNAc(b1-3)Gal(b1-4)[Fuc(a1-3)]GlcNAc
Outline: as §1

[30] = biological target: Gal(b1-3)GlcNAc(b1-3)Gal(b1-4)[Fuc(a1-3)]GlcNAc(b1-6)[Gal(b1-3)GlcNAc(b1-3)]Gal(b1-4)Glc
Outline: as §1

[31] = biological target: Gal(b1-3)GlcNAc(b1-3)GalNAc
Outline: as §1

[32] = biological target: Gal(b1-3)GlcNAc(b1-6)Gal(b1-4)GlcNAc
Outline: as §1

[33] = biological target: Gal(b1-3)GlcNAc(b1-6)GalNAc
Outline: as §1

B1: DrGRIFIN (Danio rerio), Q6DGJ1 (protein)
chain: MTLRFEASCPDGLCPGWSVILKGETPPEASKFEINFLCDRDDRVAFHFNPRFTESDIICNSYMANRWGQEERCNHFPLGVEEPFQIEIYSDNDHFHVYIDKAKVMQYKHRVEDLKTITKLQVVNDVKISSLEITKKLFY
- glycan array binding signal (z-score) [1]: -0.034
- glycan array binding signal (z-score) [2]: 3.39
- glycan array binding signal (z-score) [3]: -0.136
- glycan array binding signal (z-score) [4]: -0.187
- glycan array binding signal (z-score) [5]: -0.144
- glycan array binding signal (z-score) [6]: -0.146
- glycan array binding signal (z-score) (Gal(a1-3)GalNAc): -0.133
- glycan array binding signal (z-score) [7]: -0.169
- glycan array binding signal (z-score) [8]: -0.152
- glycan array binding signal (z-score) (Gal(a1-4)Gal(b1-4)Glc): -0.143
- glycan array binding signal (z-score) (Gal(a1-4)Gal(b1-4)GlcNAc): -0.209
- glycan array binding signal (z-score) [9]: -0.124
- glycan array binding signal (z-score) [10]: -0.15
- glycan array binding signal (z-score) (Gal(a1-4)GlcNAc): -0.212
- glycan array binding signal (z-score) (Gal(a1-6)Glc): -0.187
- glycan array binding signal (z-score) (Gal(b1-2)Gal): -0.134
- glycan array binding signal (z-score) (Gal(b1-3)Gal): -0.207
- glycan array binding signal (z-score) (Gal(b1-3)Gal(b1-4)GlcNAc): -0.172
- glycan array binding signal (z-score) (Gal(b1-3)GalNAc): -0.17
- glycan array binding signal (z-score) [11]: -0.156
- glycan array binding signal (z-score) [12]: 0.014
- glycan array binding signal (z-score) (Gal(b1-3)GalNAc(b1-3)Gal): -0.166
- glycan array binding signal (z-score) [13]: -0.142
- glycan array binding signal (z-score) [14]: -0.159
- glycan array binding signal (z-score) [15]: -0.199
- glycan array binding signal (z-score) (Gal(b1-3)GlcNAc): -0.131
- glycan array binding signal (z-score) [16]: -0.193
- glycan array binding signal (z-score) [17]: -0.138
- glycan array binding signal (z-score) (Gal(b1-3)GlcNAc(b1-2)Man): -0.2
- glycan array binding signal (z-score) [18]: -0.16
- glycan array binding signal (z-score) [19]: -0.135
- glycan array binding signal (z-score) [20]: -0.155
- glycan array binding signal (z-score) [21]: -0.168
- glycan array binding signal (z-score) [22]: -0.074
- glycan array binding signal (z-score) [23]: 0.225
- glycan array binding signal (z-score) [24]: -0.092
- glycan array binding signal (z-score) [25]: -0.088
- glycan array binding signal (z-score) [26]: -0.124
- glycan array binding signal (z-score) [27]: -0.107
- glycan array binding signal (z-score) [28]: -0.101
- glycan array binding signal (z-score) [29]: -0.203
- glycan array binding signal (z-score) [30]: -0.128
- glycan array binding signal (z-score) [31]: -0.118
- glycan array binding signal (z-score) [32]: -0.116
- glycan array binding signal (z-score) [33]: -0.246
